# From the supplement of paper PMC3334620
# In all, about 33,000 sequences were measured (“E-score (-0.5 to 0.5)”: median about -0.012, highest 2% from about 0.27 on). This is one part of the list.
# Target: T1, Vhr1 (UniProt P40522)
# T1 sequence: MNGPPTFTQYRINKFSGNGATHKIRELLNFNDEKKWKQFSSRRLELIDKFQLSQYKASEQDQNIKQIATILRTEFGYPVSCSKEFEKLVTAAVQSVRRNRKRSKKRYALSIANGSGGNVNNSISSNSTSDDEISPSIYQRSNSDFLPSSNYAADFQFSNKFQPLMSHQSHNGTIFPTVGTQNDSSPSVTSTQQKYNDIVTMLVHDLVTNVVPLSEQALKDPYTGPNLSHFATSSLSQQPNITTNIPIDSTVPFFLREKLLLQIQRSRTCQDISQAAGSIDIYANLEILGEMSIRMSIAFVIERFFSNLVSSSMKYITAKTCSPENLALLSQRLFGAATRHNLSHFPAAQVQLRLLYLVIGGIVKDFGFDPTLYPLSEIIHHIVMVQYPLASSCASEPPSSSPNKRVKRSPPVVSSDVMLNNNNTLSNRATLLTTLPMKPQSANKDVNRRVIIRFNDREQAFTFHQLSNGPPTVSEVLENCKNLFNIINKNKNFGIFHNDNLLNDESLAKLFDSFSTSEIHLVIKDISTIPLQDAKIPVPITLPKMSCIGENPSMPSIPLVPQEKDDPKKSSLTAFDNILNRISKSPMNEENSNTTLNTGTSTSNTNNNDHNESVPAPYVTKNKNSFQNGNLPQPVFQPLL
# Test: PBM E-score (8-mer binding enrichment) (E-score (-0.5 to 0.5)); higher = stronger / more preferred TF binding; most listed sequences are background and not binding sites
# Conditions: protein concentration: 200 nM; construct: GST-full length
# Procedure: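 Universal 'all 10-mer' protein binding microarrays (Agilent AMADID 015681) probed with GST-tagged S. cerevisiae TFs (full-length or DBD) made by in vitro transcription/translation (PURExpress), about 100-200 nM. Bound TF was detected with fluorescent anti-GST. Each ungapped 8-mer (which stands for itself and its reverse complement) is scored by the PBM enrichment score (E-score), a modified Wilcoxon-Mann-Whitney statistic from -0.5 to +0.5, computed with the Universal PBM Analysis Suite. Scale: above 0.35 generally sequence-specific binding.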
row,Sequence,PBM E-score
1,AAAAGGTC,-0.25
2,GCACCGGA,-0.0806
3,CCAATACC,-0.00651
4,CGTCCGTA,-0.0033
5,ACCTAGAT,0.0853
6,CTTGTCCA,-0.231
7,CAACAATC,0.273
8,GGTCCGAA,0.0081
9,ACACCAAC,0.177
10,GCGGAACC,0.107
11,ACGCTACA,0.0548
12,TCACAGGA,0.103
13,CCATCTTC,0.0786
14,TACATATA,0.264
15,AGACTAGA,-0.19
16,TGTTGTAA,0.0861
17,GTTTGTTA,0.00053
18,AAACTGCG,-0.124
19,ATGCGCGG,0.0156
20,ATTGATCG,-7e-05
21,ATGGCAGA,0.127
22,ATGATGCG,0.0549
23,CCCGAGTC,0.387
24,CCGCGCCG,-0.0381
25,CAACGTGA,0.0552

row,Sequence,PBM E-score
1,CACACCAC,0.256
2,AATCCTTC,-0.285
3,TACGTTCA,-0.115
4,AGGGGGGC,-0.162
5,AACTAGCC,-0.148
6,GAAGCGGC,-0.175
7,GACGTGAA,-0.067
8,ACAGCAAG,0.115
9,ACGGCCCC,-0.111
10,CTAGTCGC,0.0967
11,CAGGAACA,-0.0074
12,CTAGACAA,-0.104
13,CCTTGCCC,0.0376
14,AGCCAAGG,0.105
15,AAAACTTA,-0.0653
16,ATAACTTG,0.184
17,TCCGTCAA,-0.128
18,ATTTACAA,-0.101
19,AATTTCAG,-0.0667
20,AATAACCG,-0.0637
21,GACCGCTA,-0.218
22,TAACATAA,0.183
23,CCTTCATC,-0.134
24,GGTATAAA,-0.229
25,GAATGCTA,-0.124

row,Sequence,PBM E-score
1,GGCTTCTA,-0.187
2,ACACCACC,-0.00338
3,GCCATTCC,0.0224
4,ATTCTGTG,0.102
5,GATATATA,0.284
6,CGCTATGC,-0.115
7,TGCTCTAA,-0.112
8,AGGCGCAG,0.015
9,CGGCAACC,0.096
10,AGGGAAAT,-0.0127
11,ACTACTTC,-0.00968
12,CAGTCTAC,-0.181
13,AGACAGAG,-0.127
14,ATGCAGCC,0.0494
15,CGGAATGA,0.102
16,AAGCGAGG,-0.109
17,CGACACAC,0.205
18,CAAAACCG,-0.073
19,GATCGAGA,-0.00029
20,GGACTCGA,0.107
21,TACCACGA,0.0666
22,CGAAGCTC,-0.0506
23,ATACGGTC,-0.0319
24,ATTGCGCA,0.0697
25,ATTGGTTC,0.11

row,Sequence,PBM E-score
1,CCTTCGCG,0.0573
2,CGCATGGA,-0.0655
3,CATTATGG,0.086
4,ATCTTGTC,0.11
5,CTCTCTGA,0.0612
6,CTAACCGA,-0.0175
7,CATTGTTA,0.0574
8,AGTGTGGC,-0.0195
9,ATGTGGCC,0.0995
10,CATTCCAG,-0.0773
11,GGAACCCA,0.163
12,GAGTGATA,0.137
13,AACGCCAA,-0.0738
14,ATGGCCGG,-0.193
15,CCCGCTCA,-0.0605
16,AGAAGGAG,-0.129
17,AGGATTGA,0.0401
18,CTGGGCGC,-0.0767
19,ACCCAATC,0.0998
20,AGAACCAA,-0.0911
21,GACTGGCA,-0.0149
22,AGCAATCG,0.108
23,CAATTGGG,-0.0505
24,ACGTTTGA,-0.121
25,CTTGGCAC,-0.17

row,Sequence,PBM E-score
1,GCCAGAAC,-0.0322
2,CGGGTAGC,-0.041
3,ATATAGCC,0.169
4,CTTGGCCA,-0.0546
5,ATCTTCCA,-0.08
6,GCGACTAA,0.316
7,CGGTTGTC,0.00585
8,ATATCTAC,0.146
9,GCCTGTAA,-0.11
10,AGCTCGAC,-0.00221
11,CCCAGGCC,-0.116
12,ATTACCTA,0.0371
13,AGTTATAG,-0.0903
14,GCCCAGCA,-0.00993
15,AGTGAGAG,-0.185
16,CAGAGACG,-0.112
17,AGATAACC,-0.215
18,ACTACCAA,0.163
19,ACCGCGGA,0.21
20,AGCTTTAC,-0.262
21,AGGAAGAA,-0.232
22,GAAAGAAC,-0.227
23,ACGGGGAC,0.0732
24,CGTTGACA,-0.0813
25,GGCCTGGA,-0.24

row,Sequence,PBM E-score
1,CACAAGTC,-0.144
2,CCGTCCCA,-0.0107
3,ATGATAAT,0.151
4,ATGCTCGA,0.0251
5,GATGGGTA,0.285
6,AAAGTGGC,-0.0225
7,GCTCATAA,0.0821
8,ATCAGGTC,0.0435
9,AATAATCG,0.0624
10,AGTGTCCC,0.0737
11,ACGGATAC,0.167
12,CTTTGACA,-0.325
13,CACCAGCC,0.143
14,CTTCGCAA,-0.0787
15,GGGCCATA,-0.0954
16,TATAGCGA,-0.0145
17,AAACATGA,0.149
18,TCTCTTAA,-0.235
19,ACCGGTAG,0.00307
20,GAAAGATA,0.116
21,GGTGGCCA,-6e-05
22,AATCCGAC,0.139
23,CGTACTAA,0.153
24,AGTGGGCG,0.0687
25,CGACTGAA,0.0233

row,Sequence,PBM E-score
1,CTGTACTC,-0.0776
2,ACCCCCCA,-0.206
3,CGCTCCGA,0.162
4,ACAATGGA,0.153
5,ACGCTTCC,-0.0935
6,GACTAAAC,0.121
7,CAAGCGTG,-0.00913
8,TCTATACA,0.0487
9,AGACTAGG,-0.00114
10,ATCTTAGG,-0.132
11,AACCTCGT,-0.023
12,CCCACAGA,0.0858
13,GTGGTGGA,-0.0346
14,ATCAGATA,0.173
15,CGGATAGA,0.0515
16,CGATTAGA,-0.0717
17,GGTACCTA,-0.0379
18,GCGACACA,0.222
19,CACCAGTC,0.0675
20,ATCGTAGG,-0.144
21,ATATAATG,0.112
22,ACTGTGGG,0.119
